# T1: Full length human CD98hc on CHO cells (human)
# T1 construct: CHO cells stably overexpressing it; also called CHO-human CD98hc; CHO-huCD98hc
# T1 chain: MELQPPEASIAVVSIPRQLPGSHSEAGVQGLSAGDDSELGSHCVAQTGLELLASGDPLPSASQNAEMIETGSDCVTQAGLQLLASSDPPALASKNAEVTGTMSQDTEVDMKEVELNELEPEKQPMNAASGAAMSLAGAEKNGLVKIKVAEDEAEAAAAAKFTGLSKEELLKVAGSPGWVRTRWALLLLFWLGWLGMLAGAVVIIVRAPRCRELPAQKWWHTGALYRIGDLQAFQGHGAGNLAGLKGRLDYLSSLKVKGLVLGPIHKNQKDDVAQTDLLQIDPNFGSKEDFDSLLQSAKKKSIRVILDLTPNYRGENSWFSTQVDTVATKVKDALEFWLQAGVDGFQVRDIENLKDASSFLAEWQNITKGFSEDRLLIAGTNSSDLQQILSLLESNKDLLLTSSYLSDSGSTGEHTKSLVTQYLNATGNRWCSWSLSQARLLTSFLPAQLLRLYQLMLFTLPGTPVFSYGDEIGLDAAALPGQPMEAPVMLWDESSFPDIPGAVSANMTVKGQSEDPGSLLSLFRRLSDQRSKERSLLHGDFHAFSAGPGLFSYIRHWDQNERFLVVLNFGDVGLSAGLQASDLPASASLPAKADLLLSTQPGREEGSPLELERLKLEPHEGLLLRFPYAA
# T2: human CD98hc endogenously expressed on HCMEC/D3 cells (human)
# T2 construct: human brain endothelial cell line
# T2 chain: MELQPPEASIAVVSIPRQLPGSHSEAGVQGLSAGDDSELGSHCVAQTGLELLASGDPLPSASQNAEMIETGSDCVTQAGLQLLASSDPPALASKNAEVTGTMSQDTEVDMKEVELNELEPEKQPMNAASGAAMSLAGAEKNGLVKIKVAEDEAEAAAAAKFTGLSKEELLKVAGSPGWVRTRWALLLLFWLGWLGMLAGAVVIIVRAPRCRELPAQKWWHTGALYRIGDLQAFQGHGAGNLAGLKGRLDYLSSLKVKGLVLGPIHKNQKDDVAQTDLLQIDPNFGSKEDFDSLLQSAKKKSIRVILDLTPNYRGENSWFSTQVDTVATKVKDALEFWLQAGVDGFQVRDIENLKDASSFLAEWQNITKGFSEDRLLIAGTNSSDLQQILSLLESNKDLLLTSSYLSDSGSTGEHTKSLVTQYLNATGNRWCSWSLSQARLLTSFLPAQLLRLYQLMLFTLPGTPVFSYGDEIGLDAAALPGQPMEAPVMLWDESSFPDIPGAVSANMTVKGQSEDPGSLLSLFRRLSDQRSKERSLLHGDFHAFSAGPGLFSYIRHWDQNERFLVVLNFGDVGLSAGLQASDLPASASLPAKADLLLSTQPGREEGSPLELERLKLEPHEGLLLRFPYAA
# B1: CD98hc.05.188 (2+1 bispecific antibody) (bispecific antibody)
# heavy 1: EVRLLESGGGLVQPGGSLRLSCAASGFTFSNYAMGWVRQAPGKGLEWVSAISGSGGSTYYADSVKGRFTTSRDDSKNALYLQMNSLRAEDTAVYYCARGGPGWYAADVWGQGTTVTVSSASTKGPSVFPLAPSSKSTSGGTAALGCLVKDYFPEPVTVSWNSGALTSGVHTFPAVLQSSGLYSLSSVVTVPSSSLGTQTYICNVNHKPSNTKVDKKV[here human IgG1 Fc with changes without letters]GGGGSGGGGSGGGGSQVQLQQPGAELVRPGASVKLSCKASGYTFTSYWMSWVKQRPGQGLEWIGFITPSDSEALYSQMFKDKATLTVDKSSSTAHLQLSSLTSEDSAVYYCARWSYGNFAAMDYWGQGTSVTVSSGGSEGKSSGSGSESKSTGGSDIVMTQSPSSLAMSVGQKVTMSCKSSQSLLNSNNQKNYLAWYQQKPGQSPKLLVYFSSTRESGVPDRFIGSGSGTDFTLTITSVQAEDLADYFCQQHYSTPLTFGAGTKLEIK
# heavy 2: EVRLLESGGGLVQPGGSLRLSCAASGFTFSNYAMGWVRQAPGKGLEWVSAISGSGGSTYYADSVKGRFTTSRDDSKNALYLQMNSLRAEDTAVYYCARGGPGWYAADVWGQGTTVTVSS[here human IgG1 constant region with changes without letters]
# light: DIQMTQSPSSLSASVGDRVTITCRASQSISSYLNWYQQKPGKAPKLLIYAASSLQSGVPSRFSGSGSGTDFTLTISSLQPEDFATYYCQQADLPAFAFGGGTKVEIKRTVAAPSVFIFPPSDEQLKSGTASVVCLLNNFYPREAKVQWKVDNALQSGNSQESVTEQDSKDSTYSLSSTLTLSKADYEKHKVYACEVTHQGLSSPVTKSFNRGEC
# B2: CD98hc.05.193 (2+1 bispecific antibody) (bispecific antibody)
# heavy 1: EVRLLESGGGLVQPGGSLRLSCAASGFTFSNYAMGWVRQAPGKGLEWVSAISGSGGSTYYADSVKGRFTTSRDDSKNALYLQMNSLRAEDTAVYYCARGGPGWYAADVWGQGTTVTVSSASTKGPSVFPLAPSSKSTSGGTAALGCLVKDYFPEPVTVSWNSGALTSGVHTFPAVLQSSGLYSLSSVVTVPSSSLGTQTYICNVNHKPSNTKVDKKV[here human IgG1 Fc with changes without letters]GGGGSGGGGSGGGGSEVQLVESGGGLVQPGGSLKVSCTTSGFTFSDFDMSWIRQTPEKRLEWVAYISSGGGSTYFPDTVKGRFTISRDNAKSTLYLQMSSLKSEDTAMYYCARHVGVRPWFDYWGQGTLVTVSSGGSEGKSSGSGSESKSTGGSDIVMSQSPSSLAVSVGEKVTMTCKSSQSLLYSSNQKNYLAWYQQKPGQSPKLLIYWASTRESGVPDRFTGSGSGTDFTLTISSVKAEDLALYYCQQYHYYPPTFGAGTKLEIK
# heavy 2: EVRLLESGGGLVQPGGSLRLSCAASGFTFSNYAMGWVRQAPGKGLEWVSAISGSGGSTYYADSVKGRFTTSRDDSKNALYLQMNSLRAEDTAVYYCARGGPGWYAADVWGQGTTVTVSS[here human IgG1 constant region with changes without letters]
# light: DIQMTQSPSSLSASVGDRVTITCRASQSISSYLNWYQQKPGKAPKLLIYAASSLQSGVPSRFSGSGSGTDFTLTISSLQPEDFATYYCQQADLPAFAFGGGTKVEIKRTVAAPSVFIFPPSDEQLKSGTASVVCLLNNFYPREAKVQWKVDNALQSGNSQESVTEQDSKDSTYSLSSTLTLSKADYEKHKVYACEVTHQGLSSPVTKSFNRGEC
# B3: CD98hc.05.207 (2+1 bispecific antibody) (bispecific antibody)
# heavy 1: EVRLLESGGGLVQPGGSLRLSCAASGFTFSNYAMGWVRQAPGKGLEWVSAISGSGGSTYYADSVKGRFTTSRDDSKNALYLQMNSLRAEDTAVYYCARGGPGWYAADVWGQGTTVTVSSASTKGPSVFPLAPSSKSTSGGTAALGCLVKDYFPEPVTVSWNSGALTSGVHTFPAVLQSSGLYSLSSVVTVPSSSLGTQTYICNVNHKPSNTKVDKKV[here human IgG1 Fc with changes without letters]GGGGSGGGGSGGGGSEVQLVESGGGLVKPGGSLKISCAASGFAFSSYDMSWVRQTPEKRLEWVAYISSAGGSTYFPGTVKGRFTISRDNAKNTLYLQMRSLKSEDTAMYYCARHENGHYPFFDFWGQGTTLTVSSGGSEGKSSGSGSESKSTGGSDIVMSQSPSSLAVSVGEKVTLSCKSSQSLFYSGNQKTYLAWYQQKPGQSPKLLIYWTSTRESGVPDRFTGSGSGTDFTLTISSVKAEDLAVYFCQQYYTYPPTFGAGTKLEIK
# heavy 2: EVRLLESGGGLVQPGGSLRLSCAASGFTFSNYAMGWVRQAPGKGLEWVSAISGSGGSTYYADSVKGRFTTSRDDSKNALYLQMNSLRAEDTAVYYCARGGPGWYAADVWGQGTTVTVSS[here human IgG1 constant region with changes without letters]
# light: DIQMTQSPSSLSASVGDRVTITCRASQSISSYLNWYQQKPGKAPKLLIYAASSLQSGVPSRFSGSGSGTDFTLTISSLQPEDFATYYCQQADLPAFAFGGGTKVEIKRTVAAPSVFIFPPSDEQLKSGTASVVCLLNNFYPREAKVQWKVDNALQSGNSQESVTEQDSKDSTYSLSSTLTLSKADYEKHKVYACEVTHQGLSSPVTKSFNRGEC
# B4: CD98hc.05.226 (2+1 bispecific antibody) (bispecific antibody)
# heavy 1: EVRLLESGGGLVQPGGSLRLSCAASGFTFSNYAMGWVRQAPGKGLEWVSAISGSGGSTYYADSVKGRFTTSRDDSKNALYLQMNSLRAEDTAVYYCARGGPGWYAADVWGQGTTVTVSSASTKGPSVFPLAPSSKSTSGGTAALGCLVKDYFPEPVTVSWNSGALTSGVHTFPAVLQSSGLYSLSSVVTVPSSSLGTQTYICNVNHKPSNTKVDKKV[here human IgG1 Fc with changes without letters]GGGGSGGGGSGGGGSEVQLVESGGGLGKPGGSLKLSCAASGFAFSSYDMSWVRQTPEKRLDWVAYISSGGGGTYYPDTVKGRFTISRDNAKNTLYLQMSSLKSEDTAIYYCARHVGVRPWFGYWGQGTLVTVSSGGSEGKSSGSGSESKSTGGSDIVMSQSPSSLAVSVGEKITMTCKSSQSLLYSGSQKNYLAWYQQKPGQSPKLLIYWASTRESGVPDRFTGSGSGTDFTLTISSVKAEDLAVYYCQQYSYYPPTFGAGTKLEIK
# heavy 2: EVRLLESGGGLVQPGGSLRLSCAASGFTFSNYAMGWVRQAPGKGLEWVSAISGSGGSTYYADSVKGRFTTSRDDSKNALYLQMNSLRAEDTAVYYCARGGPGWYAADVWGQGTTVTVSS[here human IgG1 constant region with changes without letters]
# light: DIQMTQSPSSLSASVGDRVTITCRASQSISSYLNWYQQKPGKAPKLLIYAASSLQSGVPSRFSGSGSGTDFTLTISSLQPEDFATYYCQQADLPAFAFGGGTKVEIKRTVAAPSVFIFPPSDEQLKSGTASVVCLLNNFYPREAKVQWKVDNALQSGNSQESVTEQDSKDSTYSLSSTLTLSKADYEKHKVYACEVTHQGLSSPVTKSFNRGEC
# What was measured:
# [1] = biological target: T1, Full length human CD98hc on CHO cells; assay: FACS
# [2] = biological target: T2, human CD98hc endogenously expressed on …; assay: FACS
Binder,MFI ratio CHO huCD98/CHO parental [1],MFI ratio HCMEC/2nd ab only [2]
B1,16,260
B2,23,526
B3,17,215
B4,24,490

# From patent publication US20250270341A1 (Alector, published 2025)
